From PMC7481202 come the findings set out here.

By UniProt entry, the sequences of proteins in these tests, tags left out.
UniProt P40763: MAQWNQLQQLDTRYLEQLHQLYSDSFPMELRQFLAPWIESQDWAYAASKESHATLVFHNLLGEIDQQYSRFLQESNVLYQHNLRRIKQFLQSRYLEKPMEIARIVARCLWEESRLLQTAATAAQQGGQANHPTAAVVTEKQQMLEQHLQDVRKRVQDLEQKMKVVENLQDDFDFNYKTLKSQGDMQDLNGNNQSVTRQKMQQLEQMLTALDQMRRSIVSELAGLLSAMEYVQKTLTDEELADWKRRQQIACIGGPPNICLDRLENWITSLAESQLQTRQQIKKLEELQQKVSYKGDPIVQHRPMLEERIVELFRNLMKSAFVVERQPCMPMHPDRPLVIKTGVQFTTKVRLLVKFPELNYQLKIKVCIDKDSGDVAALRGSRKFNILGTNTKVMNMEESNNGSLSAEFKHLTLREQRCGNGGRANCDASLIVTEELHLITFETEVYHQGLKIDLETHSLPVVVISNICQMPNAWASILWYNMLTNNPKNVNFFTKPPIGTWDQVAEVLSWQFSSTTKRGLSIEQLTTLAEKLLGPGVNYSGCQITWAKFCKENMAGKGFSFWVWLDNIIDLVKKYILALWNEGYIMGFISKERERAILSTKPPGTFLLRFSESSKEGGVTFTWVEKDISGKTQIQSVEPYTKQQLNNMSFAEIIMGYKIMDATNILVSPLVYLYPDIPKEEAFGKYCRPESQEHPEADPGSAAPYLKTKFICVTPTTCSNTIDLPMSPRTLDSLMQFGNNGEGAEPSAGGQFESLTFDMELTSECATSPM
UniProt P07355: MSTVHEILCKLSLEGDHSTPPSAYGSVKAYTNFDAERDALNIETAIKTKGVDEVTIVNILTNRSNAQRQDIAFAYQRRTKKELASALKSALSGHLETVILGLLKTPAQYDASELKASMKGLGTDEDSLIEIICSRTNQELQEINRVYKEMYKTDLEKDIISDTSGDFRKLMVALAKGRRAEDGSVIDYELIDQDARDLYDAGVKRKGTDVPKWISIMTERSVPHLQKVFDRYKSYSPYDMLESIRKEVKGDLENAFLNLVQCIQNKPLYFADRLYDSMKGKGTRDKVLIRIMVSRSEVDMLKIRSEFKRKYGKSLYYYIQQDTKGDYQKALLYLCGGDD
UniProt P60903: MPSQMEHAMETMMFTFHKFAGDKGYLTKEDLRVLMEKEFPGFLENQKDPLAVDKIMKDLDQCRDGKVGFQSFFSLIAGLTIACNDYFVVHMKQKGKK

No constants are given. Whether binding was seen depends on the method and setting. In cells and extracts the contact can be indirect. Some results given as binding are weak or reduced against the parent protein; the word gives no strength. For part of these data: Sequences can lack the tags named with a protein.

For one test, the target named is T1, Prx2-SBP (human) (UniProt P32119).
T1 sequence: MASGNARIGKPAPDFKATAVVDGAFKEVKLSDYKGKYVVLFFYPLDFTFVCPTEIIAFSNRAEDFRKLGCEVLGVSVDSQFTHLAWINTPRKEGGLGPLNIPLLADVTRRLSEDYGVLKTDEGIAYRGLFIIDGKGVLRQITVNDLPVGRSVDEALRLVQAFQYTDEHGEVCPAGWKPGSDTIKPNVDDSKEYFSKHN
The test can be described thus: pull-down; SBP-tagged bait from transfected, untreated cells; NEM block; lysis in 1% Triton X-100 in TBS; streptavidin sepharose 4 h; elution with 4 mM biotin; immunoblot; also after AnxA2 siRNA. In general terms: A western blot detects proteins with antibodies after separation by electrophoresis.

Another test deals with SBP-STAT3 (human) (UniProt P40763). The test is described as above.
Test [1] addresses annexin A2 (endogenous) (human (endogenous in HEK293 MSR and HeLa)) (UniProt P07355). The test can be described thus: proximity ligation; Duolink PLA on methanol-fixed HeLa cells, endogenous untagged proteins, two primary antibodies; wild type and AnxA2 KO cells.
For test [2] the target is unchanged. The test can be described thus: co-IP; immunoprecipitation of endogenous AnxA2, blot for endogenous STAT3 (Supplementary Fig. 3a); methods not shown.
Test [3] has as its target S100A10 (endogenous) (human (endogenous in HeLa)) (UniProt P60903). The test is described as follows: proximity ligation; Duolink PLA on methanol-fixed HeLa cells, endogenous untagged proteins, two primary antibodies; wild type and AnxA2 KO cells.
A further test deals with STAT3-HA-LN151 (human) (UniProt P40763). The test is described as follows: split reporter; mLumin BiFC in HEK293 MSR cells; one partner stably expressed, the other transiently transfected; read 48 h after transfection in DPBS on a microplate reader; mLumin fluorescence normalised to co-transfected GFP.

Take “annexin A2 (endogenous) (from UniProt P07355 1-339)”: the binding entry with Prx2-SBP (human) and with SBP-STAT3 (human) was “binds” throughout. For the molecule “S100A10 (endogenous) (from UniProt P60903 1-97)”, the binding entry in test [1] is “binds”. For the molecule “STAT3 (endogenous) (from UniProt P40763 1-770)”, the binding entry is on record as “binds” in test [2], “no binding” in test [3] and “binds” in test [1].

B1: peroxiredoxin 2 (endogenous) (protein, UniProt P32119 1-198)
chain: T1 sequence
On to B1, for which the figures for the binding result in test [3] and in test [1] were “no binding” and “binds”, respectively.

B2: Prx1-MYC-LC151 (protein, UniProt Q06830 1-199)
chain: MSSGNAKIGHPAPNFKATAVMPDGQFKDISLSDYKGKYVVFFFYPLDFTFVCPTEIIAFSDRAEEFKKLNCQVIGASVDSHFCHLAWVNTPKKQGGLGPMNIPLVSDPKRTIAQDYGVLKADEGISFRGLFIIDDKGILRQITVNDLPVGRSVDETLRLVQAFQFTDKHGEVCPAGWKPGSDTIKPDVQKSKEYFSKQK
As for B2, the binding entry with STAT3-HA-LN151 (human) was “binds weakly”.
